Laboratory results as given in PubChem BioAssay AID330 (DTP/NCI, 2004).
This continues a long series; more values of the same kind are listed elsewhere. Toxic doses and inconclusive results are not listed. How the source made its calls: active means survival T/C of 150% or more; inactive means T/C below 125% in these data.

Test system: P388 leukemia ip, CD2F1 mice, survival T/C
Test: NCI In Vivo Anticancer Drug Screen. Data for tumor model P388 Leukemia (intraperitoneal) in CD2F1 (CDF1) mice
Conditions: endpoint: median survival time, higher = longer survival
Experimental: The antitumor activity of compounds was measured in mice bearing transplantable tumors. Survival or tumor size were measured and the results are expressed as the measurement made in the treated group (T) divided by the measurement made in the vehicle treated control group (C). The tumor model used in this assay is P388 Leukemia (intraperitoneal) in CD2F1 (CDF1) mice

Measured: T/C

O=NN(CCCl)C(=O)NCCCl
inactive: dose: 3.3 mg/kg/injection, schedule: Q01DX005 (ip), vehicle: saline + alcohol 89 % of control | dose: 3.3 mg/kg/injection, schedule: Q01DX009 (ip), vehicle: saline + alcohol 91 % of control | dose: 25.0 mg/kg/injection, schedule: Q01DX005 (ip), vehicle: saline with Tween-80 = 90 % of control | dose: 50.0 mg/kg/injection, schedule: Q04DX002 (ip), vehicle: saline + alcohol 88 % of control | dose: 64.0 mg/kg/injection, schedule: Q01DX001 (ip), vehicle: saline with Tween-80 = 66 % of control
